Source: patent US8911966B2, “Efficient astaxanthin production strains derived from Haematococcus pluvialis” (Cognis IP Management GmbH, priority 2007, dated 2014)

Tested on: Haematococcus pluvialis SAG 34-1b
Test: Growth inhibition of wild strain by herbicides (minimal inhibiting concentration)
Type: cell-based
Details: strain SAG 34-1b; concentration also used for selection

Compound | minimal concentration of the herbicide which inhibits the growth of the wild strain [µM]
c1ccc(Nc2ccccc2)cc1 [Diphenylamine, diphenylamine] | 60
CNc1cnn(-c2cccc(C(F)(F)F)c2)c(=O)c1Cl [Norflurazon, norflurazon] | 2
